According to PubChem BioAssay AID493208 (National Center for Advancing Translational Sciences (NCATS), 2011):
In all, about 44,000 compounds went through this assay and about 340 (0.77%) were called active. Roughly 5% stayed inconclusive and do not appear here. Calls follow the shape of the dose curve; as a rule, active = well fitted inhibition curve with a large enough effect; inconclusive = small, poorly fitted or top-dose-only effect; inactive = flat fitted curve, though single readings scatter. This is one part of the list.

Assay: Acumen qHTS Assay for Inhibitors of the mTORC1 Signaling Pathway in MEF (Tsc2-/-, p53-/-) Cells: Sytravon; also: nearly all actives have a fitted effect of over 50% in size;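 as to activity change, negative = inhibition: plate controls were DMSO for no effect and rapamycin for full effect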
Conditions: phospho-rpS6 immunofluorescence/PI, 24 h; series mostly up to 38.3 µM; activity change, negative = inhibition: at the top concentration
Procedure, shortened: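 Readout is phospho-S6 Alexa 488 signal normalized to PI per well, reported as % active cells with thresholds set from rapamycin (7.5 nM) and DMSO controls. Cells: Tsc2-/-, p53-/- MEFs, 24 hrs compound at 37 C; PI cell number serves as viability.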
Potency is read from the fitted curve at half-maximal effect.

| Structure (SMILES) | activity change, negative = inhibition | Potency |
| --- | --- | --- |
| CCCN(CCC)CCCNC(=O)Cn1ncc2c3ccccc3n(Cc3ccccc3F)c2c1=O | inactive: -12% |  |
| CCOc1ccccc1N(C)C(=O)Cn1nc(Cc2ccncc2)c2ccccc2c1=O | inactive: -1.74% |  |
| COc1ccccc1C(=O)OCc1cc(=O)n2nc(-c3cccs3)sc2n1 | inactive: -14% |  |
| CCOc1ccc(-c2cc(NC(=O)Nc3ccc(Cl)cc3)c(C(=O)OC)s2)cc1 | inactive: 0.381% |  |
| CCCSc1ncc(Cl)c(C(=O)N(Cc2cccc(Cl)c2)C2CCS(=O)(=O)C2)n1 (centres undefined) | inactive: -1.31% |  |
| COc1ccc(OC)c(NC(=O)c2cnc(N3CCCCC3)c3ccccc23)c1 | inactive: -0.877% |  |
| CCOC(=O)c1c(NC(=O)CCCOc2ccc(C(C)(C)C)cc2)sc2c1CCCC2 | inactive: 4.98% |  |
| Cc1cccc(C(c2sc3nc(-c4ccco4)nn3c2O)N2CCN(c3ccccc3F)CC2)c1 (centres undefined) | inactive: 0.108% |  |
| CCOC(=O)C1CCCN(S(=O)(=O)c2cc(Br)cc3c2N(C(C)=O)CC3)C1 (centres undefined) | inactive: 0.584% |  |
| COC(=O)c1ccc(NS(=O)(=O)c2ccc3[nH]c4c(c3c2)CCCC4)cc1 | inactive: 0.715% |  |
| CCC(=O)N1CCc2cc(S(=O)(=O)NCCC(=O)NCc3ccc(C)cc3)ccc21 | inactive: -14.7% |  |
| Cc1nn(-c2ccccc2)c2sc(C(=O)Nc3ccc(Br)cc3)cc12 | inactive: -7.85% |  |
| O=C1COc2ccc(-c3cc(-c4ccccc4)c4c(n3)-c3ccccc3OC4)cc2N1 | inactive: -2.93% |  |
| COc1ccc(-c2cc3c(=O)n(CC(=O)Nc4cc(F)ccc4F)ccn3n2)cc1OC | inactive: 0% |  |
| O=C(NCCc1ccc(Cl)cc1)c1ccc2c(c1)N(Cc1ccc(F)cc1)C(=O)CS2 | inactive: -10.2% |  |
| CN(C)c1ccc(-c2nc(-c3cccs3)c(-c3cccs3)[nH]2)cc1 | inactive: -9.2% |  |
| COc1cccc(CNC(=O)CCCn2ncn3c(cc4occc43)c2=O)c1 | inactive: 1.72% |  |
| CCCn1c(SCC(O)c2ccccc2)nc2ccccc21 (centres undefined) | inactive: 2.11% |  |
| Cc1ccc(-c2noc(-c3ccccc3NC(=O)C3CC(=O)N(c4ccc(C)cc4)C3)n2)cc1 (centres undefined) | inactive: 2.76% |  |
| Cc1ccc(C(=O)NCC(c2ccco2)S(=O)(=O)c2cccs2)cc1C (centres undefined) | inactive: -2.78% |  |
| O=C(Oc1ccc(F)cc1)c1nc(SCc2ccc(F)cc2)ncc1Cl | inactive: -3.59% |  |
| COc1ccc(NC(=O)CCS(=O)(=O)c2ccc3c(c2)oc(=O)n3C)cc1OC | inactive: -4.83% |  |
| COC(=O)c1sc(-c2ccccc2)cc1NC(=O)Nc1ccc(Cl)cc1 | inactive: -5.15% |  |
| CC1=C(C(=O)NCc2ccccc2C)C2(CCCCCC2)OC1=O | inactive: 0.215% |  |

| Structure (SMILES) | activity change, negative = inhibition | Potency |
| --- | --- | --- |
| CCCCN(Cc1cc2ccccc2[nH]c1=O)C(=O)c1cccc(Cl)c1 | inactive: 4.14% |  |
| Cc1ccc(-c2nc(SCC(=O)NCC3CCCO3)c3c(=O)n(C)c(=O)n(C)c3n2)cc1 (centres undefined) | inactive: -2.11% |  |
| Cc1cc(OCCn2c(CCNC(=O)C3CCCCC3)nc3ccccc32)ccc1Cl | inactive: 0% |  |
| CCOC(=O)CSC1=Nc2ccccc2C2=NC(CCC(=O)NCc3ccc(OC)cc3)C(=O)N12 (centres undefined) | inactive: 0.0823% |  |
| Cc1ccccc1N1CCN(S(=O)(=O)c2ccccc2)CC1 | inactive: -9.95% |  |
| Oc1c(C(c2ccccc2F)N2CCN(c3ccccc3F)CC2)sc2nc(-c3ccco3)nn12 (centres undefined) | inactive: -0.615% |  |
| COc1ccc(C)cc1NS(=O)(=O)c1ccc2c3c(cccc13)C(=O)N2 | inactive: 2.36% |  |
| COc1ccccc1Cn1ccn(Cc2ccc(C)cc2)c(=O)c1=O | inactive: -10.1% |  |
| CCCc1cc(N2CCN(c3cccc(C)c3C)CC2)n2cnnc2n1 | inactive: 4.01% |  |
| COc1ccc(CNC(=O)CCC2N=C3c4ccccc4N=C(SCc4ccccc4F)N3C2=O)cc1 (centres undefined) | inactive: 2.36% |  |
| Cc1cc(C)c(NC(=O)CSc2nccn2-c2cccc(Cl)c2)c(C)c1 | inactive: -3.65% |  |
| COc1cccc(-n2c(-c3ccccc3F)nc3c(cnn3-c3ccc(C)cc3)c2=O)c1 | inactive: 1.17% |  |
| CCOC(=O)C(Cc1ccccc1)NC(=O)CCc1c(C)nc2nc(C)nn2c1C (centres undefined) | inactive: -11.4% |  |
| Cc1ccccc1OCc1nc2c3cnn(-c4ccccc4F)c3ncn2n1 | inactive: 2.31% |  |
| COCCNC(=O)CSc1nc2cc3c(cc2c(=O)n1CCCC(=O)NCc1ccc2c(c1)OCO2)OCO3 | inactive: 0.815% |  |
| O=C(NC1CCCC1)c1ccc2c(=O)n(Cc3ccccc3)c(SCc3cccc([N+](=O)[O-])c3)nc2c1 | inactive: 0.275% |  |
| CCc1ccc(OCC(=O)Nc2cc(-c3ccc(C)cc3)no2)cc1 | inactive: 1.47% |  |
| COc1ccc(CNC(=O)CSc2ncc3c(n2)-c2cc(Cl)ccc2N(Cc2ccccc2)S3(=O)=O)cc1 | inactive: -5.87% |  |
| Cc1ccc(Cl)cc1N1CCN(C(=O)Cn2c(-c3cccs3)cc3cc(F)ccc32)CC1 | inactive: 0.455% |  |
| CCOC(=O)Cn1c(=O)cc(C(F)(F)C(F)(F)F)c2c(C)nn(CC)c21 | inactive: -11% |  |
| COC(=O)c1sccc1S(=O)(=O)N1CCN(c2ccc(C)cc2C)CC1 | inactive: -9.8% |  |
| CCOc1ccc(CNC(=O)C2CCN(C(=O)N3CC(CC)Oc4ccccc43)CC2)cc1 (centres undefined) | inactive: -3.17% |  |
| Cc1c(Cl)cccc1NC(=O)N1CCOc2ccccc21 | inactive: -1.73% |  |
| Cc1ccc(OCC(=O)Nc2ccc3nc(SCC(=O)Nc4ccc(C)cc4C)sc3c2)cc1 | inactive: 0.991% |  |

| Structure (SMILES) | activity change, negative = inhibition | Potency |
| --- | --- | --- |
| CC(C)(C)c1ccc(C(=O)NC2(C(F)(F)F)NC(=O)N(CCc3ccccc3)C2=O)cc1 (centres undefined) | inactive: -5.24% |  |
| COc1cccc(NC(=O)CSc2ncc3c(n2)-c2ccc(Cl)cc2N(C)S3(=O)=O)c1 | inactive: 0.43% |  |
| CCOc1ccccc1NC(=O)C(=O)NCCc1sc2nc(-c3ccc(OC)cc3)nn2c1C | inactive: -0.767% |  |
| Cc1ccc(NC(=O)NCCOCCn2c(=O)oc3ccccc32)cc1C | inactive: -1.65% |  |
| CCOc1ccccc1NS(=O)(=O)c1ccc2[nH]c3c(c2c1)CCCCC3 | inactive: -10.1% |  |
| COc1ccc(S(=O)(=O)N(CC(=O)Nc2cc(C)ccc2OC)Cc2ccccc2)cc1 | inactive: 3.12% |  |
| COC(=O)c1ccc(NC(=O)CN2CCN(S(=O)(=O)c3ccc(Br)cc3)CC2)cc1 | inactive: 2.99% |  |
| Cc1ccc(Cn2c(=O)n(-c3ccc(C)cc3)c(=O)c3c2c2cc(C)ccc2n3C)cc1 | inactive: -1.48% |  |
| Cc1c(-c2ccc(Cl)cc2)c(=O)oc2c(CN3CCN(CCO)CC3)c(O)ccc12 | inactive: 4.01% |  |
| CCOc1ccc(CCNC(=O)c2cc3c(=O)n(C)c4ccccc4c3n2C)cc1OCC | inactive: 0.488% |  |
| CCCN(CCC)CCCNC(=O)C1CCN(c2nc3ccc(CC)cc3s2)CC1 |  | active: 16.5 µM |
| O=C(CSc1cn(CC(=O)N2CCCCC2)c2ccccc12)NCc1ccc(F)cc1 | inactive: -1.42% |  |
| N#C/C(=C\c1cccc(F)c1)c1nc(-c2cc3c(ccc4ccccc43)oc2=O)cs1 | inactive: -3.64% |  |
| CCOc1cc(C2c3c(oc4cc(C)cc(C)c4c3=O)C(=O)N2CCO)ccc1O (centres undefined) | inactive: -4.17% |  |
| Cc1ccc(NC(=O)Nc2ccc3nc(N4CCN(C)CC4)cc(C)c3c2)cc1F | inactive: -16.7% |  |
| CSc1cccc(NC(=O)C2CCCN(C(=O)c3cnn(-c4ccc(F)cc4)c3-n3cccc3)C2)c1 (centres undefined) | inactive: -1.13% |  |
| O=C(NCc1ccc2c(c1)OCO2)c1ccc2c(c1)N(Cc1cccc(Cl)c1)C(=O)c1ccccc1S2=O (centres undefined) | inactive: 2.08% |  |
| Cc1c(Cl)cccc1NC(=O)C1CCCN(c2nnc(-n3c(C)ccc3C)s2)C1 (centres undefined) | inactive: 0.582% |  |
| O=C(NCC(c1ccc2c(c1)OCO2)N1CCN(c2ccccc2)CC1)C(=O)Nc1cccc(F)c1 (centres undefined) | inactive: -7.14% |  |
| Cc1ccc(CSC2=Nc3ccccc3C3=NC(CCC(=O)NCc4cccs4)C(=O)N23)cc1 (centres undefined) | inactive: -3.37% |  |
| CCN(CCCNC(=O)c1ccc(Sc2ccc(F)cc2)c(NC(C)=O)c1)c1ccccc1 | inactive: 11.4% |  |
| COc1ccc(CNC(=O)Cn2c(=O)nc(-c3ccccc3F)c3cc(Cl)ccc32)cc1 | inactive: 0% |  |
| CCN(CC)C(=O)CSc1nc2cc3c(cc2c(=O)n1CCCCCC(=O)NCc1ccc(OC)cc1)OCO3 | inactive: 1.78% |  |
| Cc1ccc(F)cc1NC(=O)Cn1c(=O)nc(-c2ccccc2F)c2cc(Cl)ccc21 | inactive: 0% |  |

| Structure (SMILES) | activity change, negative = inhibition | Potency |
| --- | --- | --- |
| COc1ccc(C2=C(C)C(=O)N(Cc3ccc(C(=O)Nc4cccc(F)c4)cc3)S2(=O)=O)cc1 | inactive: -1.3% |  |
| CC1CCCN(c2nc3c(S(=O)(=O)c4ccc(C(C)C)cc4)nnn3c3ccsc23)C1 (centres undefined) | inactive: -2.72% |  |
| COc1ccc(-c2csc(-c3nc(-c4ccc(Br)s4)cs3)n2)cc1F | inactive: -4.56% |  |
| COc1ccccc1C(=O)NCc1nnnn1-c1ccc(C)c(C)c1 | inactive: -16.6% |  |
| CCC1CCCCN1CCCNC(=O)c1c(O)nc2ccccn2c1=O (centres undefined) | inactive: 0.247% |  |
| CCCC1=Nc2cc(C(=O)NCCc3ccc(OCC)cc3)ccc2Sc2ccccc21 | inactive: -23.3% |  |
| COc1cc2c(-c3ccccc3O)nc3c(c(C)nn3-c3ccccc3)c2cc1OC | inactive: -1.72% |  |
| COc1cccc(CN2C(=O)c3ccccc3Sc3ccc(C(=O)NCCc4ccc(C)cc4)cc32)c1 | inactive: -0.336% |  |
| Cc1cccc(NC(=O)Cn2cc(C(=O)C3CCCCC3)c3ccccc32)c1C | inactive: -12.4% |  |
| COc1ccccc1C(=O)N1CCCCC1CCN1CCOCC1 (centres undefined) | inactive: -3.95% |  |
| O=C(Nc1ccc(-c2nc3cc(NC(=O)c4ccccc4F)ccc3o2)cc1)c1ccccc1F | inactive: -3.51% |  |
| N#Cc1ccccc1NC(=O)CSc1ncn[nH]1 | inactive: 6.69% |  |
| Cc1ccc(CNC(=O)C(=O)NCC(c2cccnc2)N2CCN(c3ccc(F)cc3)CC2)cc1 (centres undefined) | inactive: 8.39% |  |
| O=C(NCc1ccccc1)c1cc2sccc2n1Cc1ccc(F)cc1 | inactive: -1.18% |  |
| CCCc1nn2c(=O)cc(COC(=O)c3cccs3)nc2s1 | inactive: -5.19% |  |
| CCOc1ccc(C(=O)c2cn(CC(=O)Nc3ccc4c(c3)OCCO4)c3ccc(OC)cc3c2=O)cc1 | inactive: -14.8% |  |
| COc1ccccc1NC(=O)c1sc2nc(C)c(C(=O)Nc3ccc(C)cc3C)c(-c3ccc(Br)cc3)c2c1N | inactive: -5.96% |  |
| Cc1ccccc1CNC(=O)Cn1ccc2cc(S(=O)(=O)N3CCCCC3)ccc21 | inactive: -5.52% |  |
| Cn1c(=O)c2c(nc(Oc3ccc(F)cc3)n2Cc2ccc(F)cc2)n(C)c1=O | inactive: -1.68% |  |
| Cc1ccc(C)c(NC(=O)c2nc(S(C)(=O)=O)ncc2N(Cc2ccc(C(C)(C)C)cc2)Cc2ccco2)c1 | inactive: -0.0619% |  |
| CN1C(=O)Cc2cc(S(=O)(=O)N3CCN(c4cccc(C(F)(F)F)c4)CC3)ccc21 | inactive: -0.996% |  |
| Cc1cccc(C(=O)Nc2ccc(C(=O)OCc3cc(=O)n4c5c(sc4n3)CCCC5)cc2)c1 | inactive: 0% |  |
